Laboratory results reported in article PMC6704089.
Results are given in words; binding and its absence hold for the method and conditions named. For some of these results: Binding seen in cells or lysates may run through a third protein. Some binding calls cover weakened binding; strength is not graded here. Sequences can lack the tags named with a protein. Each block holds one molecule with its values, some of them ahead of it.

Chains of the proteins cited; added tags and fusions are not shown.
UniProt Q9FTA2: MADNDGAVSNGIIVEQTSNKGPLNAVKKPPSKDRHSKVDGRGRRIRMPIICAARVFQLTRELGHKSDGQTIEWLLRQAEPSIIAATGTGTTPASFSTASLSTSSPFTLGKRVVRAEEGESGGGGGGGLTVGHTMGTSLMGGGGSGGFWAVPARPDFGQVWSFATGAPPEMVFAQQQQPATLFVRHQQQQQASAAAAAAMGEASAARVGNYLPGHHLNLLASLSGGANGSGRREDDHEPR
UniProt Q94BT6: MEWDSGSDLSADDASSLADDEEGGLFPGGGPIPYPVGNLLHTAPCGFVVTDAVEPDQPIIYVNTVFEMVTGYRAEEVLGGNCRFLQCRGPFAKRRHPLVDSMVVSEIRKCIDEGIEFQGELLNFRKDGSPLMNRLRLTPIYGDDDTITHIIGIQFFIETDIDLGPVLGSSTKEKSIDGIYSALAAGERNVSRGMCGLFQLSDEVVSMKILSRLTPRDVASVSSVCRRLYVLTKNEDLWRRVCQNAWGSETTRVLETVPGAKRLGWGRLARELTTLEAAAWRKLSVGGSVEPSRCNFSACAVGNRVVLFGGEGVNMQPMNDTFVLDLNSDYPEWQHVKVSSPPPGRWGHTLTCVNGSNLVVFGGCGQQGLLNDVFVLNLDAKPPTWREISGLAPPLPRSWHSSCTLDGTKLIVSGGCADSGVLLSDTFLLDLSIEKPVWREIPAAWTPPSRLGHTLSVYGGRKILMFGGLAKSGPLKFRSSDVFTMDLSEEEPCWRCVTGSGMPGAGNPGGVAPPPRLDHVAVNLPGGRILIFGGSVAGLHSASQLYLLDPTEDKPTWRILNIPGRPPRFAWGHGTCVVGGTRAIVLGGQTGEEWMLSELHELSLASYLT

Assays:
[1] = target: T1, UBIQUITIN-SPECIFIC PROTEASE 12 (UBP12), full length, yeast two-hybrid fusion (Arabidopsis thaliana) (UniProt Q9FPT1); test: two-hybrid; yeast two-hybrid, GAL4-BD and GAL4-AD fusions; growth on SD-LW for selection and on SD-LWHA to test for interactions
T1 sequence: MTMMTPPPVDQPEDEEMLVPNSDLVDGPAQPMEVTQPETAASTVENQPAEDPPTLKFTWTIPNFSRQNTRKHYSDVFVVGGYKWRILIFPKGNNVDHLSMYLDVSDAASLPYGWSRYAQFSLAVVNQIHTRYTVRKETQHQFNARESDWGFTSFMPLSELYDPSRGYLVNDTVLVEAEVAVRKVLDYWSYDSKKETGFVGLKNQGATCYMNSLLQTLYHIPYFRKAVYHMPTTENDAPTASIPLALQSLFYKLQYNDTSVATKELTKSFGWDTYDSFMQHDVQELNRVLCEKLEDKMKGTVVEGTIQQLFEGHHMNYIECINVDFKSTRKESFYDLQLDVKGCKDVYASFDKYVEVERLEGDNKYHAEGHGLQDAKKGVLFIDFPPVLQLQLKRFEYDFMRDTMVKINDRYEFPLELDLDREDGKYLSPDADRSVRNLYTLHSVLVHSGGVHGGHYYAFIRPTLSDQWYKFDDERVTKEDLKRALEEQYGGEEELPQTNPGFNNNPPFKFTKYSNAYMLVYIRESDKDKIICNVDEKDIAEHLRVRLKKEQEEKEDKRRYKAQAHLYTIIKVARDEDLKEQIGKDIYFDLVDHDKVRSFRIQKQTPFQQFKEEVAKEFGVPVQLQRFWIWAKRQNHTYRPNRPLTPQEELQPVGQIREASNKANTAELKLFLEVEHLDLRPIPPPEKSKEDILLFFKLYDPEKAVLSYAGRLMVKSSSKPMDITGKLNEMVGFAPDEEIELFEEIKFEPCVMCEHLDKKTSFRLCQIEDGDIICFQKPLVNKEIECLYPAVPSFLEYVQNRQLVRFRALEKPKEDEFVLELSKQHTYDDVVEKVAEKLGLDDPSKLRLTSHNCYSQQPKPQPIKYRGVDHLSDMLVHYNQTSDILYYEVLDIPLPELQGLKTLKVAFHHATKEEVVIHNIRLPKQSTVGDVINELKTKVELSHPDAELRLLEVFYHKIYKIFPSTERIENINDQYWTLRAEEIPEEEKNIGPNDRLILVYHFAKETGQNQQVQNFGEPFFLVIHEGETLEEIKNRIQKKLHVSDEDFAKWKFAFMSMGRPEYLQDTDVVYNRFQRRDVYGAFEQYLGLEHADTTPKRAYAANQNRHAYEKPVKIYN

[2] = target: T2, UBIQUITIN-SPECIFIC PROTEASE 13 (UBP13), full length, yeast two-hybrid fusion (Arabidopsis thaliana) (UniProt Q84WU2); test: as above
T2 sequence: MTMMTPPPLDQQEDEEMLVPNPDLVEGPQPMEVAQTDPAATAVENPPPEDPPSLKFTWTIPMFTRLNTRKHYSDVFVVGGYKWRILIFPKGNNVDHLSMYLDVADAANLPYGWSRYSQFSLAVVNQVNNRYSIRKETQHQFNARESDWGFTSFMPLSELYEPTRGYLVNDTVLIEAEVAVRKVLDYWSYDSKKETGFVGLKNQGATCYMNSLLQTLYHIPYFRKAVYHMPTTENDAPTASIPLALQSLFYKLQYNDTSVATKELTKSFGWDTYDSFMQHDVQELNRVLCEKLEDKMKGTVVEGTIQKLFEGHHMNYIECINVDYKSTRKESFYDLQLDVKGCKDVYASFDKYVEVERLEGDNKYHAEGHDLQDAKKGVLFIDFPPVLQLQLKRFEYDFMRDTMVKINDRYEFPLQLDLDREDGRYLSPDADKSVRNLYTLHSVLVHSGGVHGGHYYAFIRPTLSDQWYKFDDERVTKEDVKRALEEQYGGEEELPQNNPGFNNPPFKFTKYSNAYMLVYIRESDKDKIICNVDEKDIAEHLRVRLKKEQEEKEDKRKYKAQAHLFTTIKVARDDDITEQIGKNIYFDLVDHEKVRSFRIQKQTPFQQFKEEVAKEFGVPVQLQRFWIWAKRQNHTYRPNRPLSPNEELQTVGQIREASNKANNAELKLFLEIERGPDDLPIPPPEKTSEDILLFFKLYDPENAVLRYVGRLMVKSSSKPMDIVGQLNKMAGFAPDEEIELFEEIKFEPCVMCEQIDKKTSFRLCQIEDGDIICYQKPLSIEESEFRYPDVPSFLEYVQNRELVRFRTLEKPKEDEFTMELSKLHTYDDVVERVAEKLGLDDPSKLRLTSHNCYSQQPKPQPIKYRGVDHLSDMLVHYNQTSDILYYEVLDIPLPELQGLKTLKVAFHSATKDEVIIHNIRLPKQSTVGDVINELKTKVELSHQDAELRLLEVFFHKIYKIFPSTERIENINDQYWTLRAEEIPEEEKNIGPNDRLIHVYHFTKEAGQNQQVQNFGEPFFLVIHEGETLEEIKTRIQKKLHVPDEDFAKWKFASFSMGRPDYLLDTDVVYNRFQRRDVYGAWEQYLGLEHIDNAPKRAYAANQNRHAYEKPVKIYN

[3] = target: T3, UBP13 fused to a Venus (YFP) fragment for BiFC (Arabidopsis thaliana) (UniProt Q84WU2); test: split reporter; BiFC with N- and C-terminal halves of Venus (YFP) in Arabidopsis (Col-0) protoplasts, imaged 14-18 h after transfection in low light
T3 sequence: T2 sequence

[4] = target: T4, UBP12 fused to a Venus (YFP) fragment for BiFC (Arabidopsis thaliana) (UniProt Q9FPT1); test: as above
T4 sequence: T1 sequence

[5] = target: T5, FLAG-UBP13 (Arabidopsis thaliana) (UniProt Q84WU2); test: co-IP; anti-FLAG M2 magnetic beads on extracts of N. benthamiana leaves co-expressing FLAG-UBP12 or FLAG-UBP13 with HA-GI, with or without Myc-ZTL; western blotting
T5 sequence: T2 sequence

[6] = target: T6, FLAG-UBP12 (Arabidopsis thaliana) (UniProt Q9FPT1); test: as above
T6 sequence: T1 sequence

Molecule: CCA1 HIKING EXPEDITION (CHE), yeast two-hybrid fusion (from UniProt Q9FTA2 1-239)
binding [1]: no binding
binding [2]: no binding

B1: GIGANTEA (GI), yeast two-hybrid fusion (protein, UniProt Q9SQI2 1-1173)
chain: MASSSSSERWIDGLQFSSLLWPPPRDPQQHKDQVVAYVEYFGQFTSEQFPDDIAELVRHQYPSTEKRLLDDVLAMFVLHHPEHGHAVILPIISCLIDGSLVYSKEAHPFASFISLVCPSSENDYSEQWALACGEILRILTHYNRPIYKTEQQNGDTERNCLSKATTSGSPTSEPKAGSPTQHERKPLRPLSPWISDILLAAPLGIRSDYFRWCSGVMGKYAAGELKPPTIASRGSGKHPQLMPSTPRWAVANGAGVILSVCDDEVARYETATLTAVAVPALLLPPPTTSLDEHLVAGLPALEPYARLFHRYYAIATPSATQRLLLGLLEAPPSWAPDALDAAVQLVELLRAAEDYASGVRLPRNWMHLHFLRAIGIAMSMRAGVAADAAAALLFRILSQPALLFPPLSQVEGVEIQHAPIGGYSSNYRKQIEVPAAEATIEATAQGIASMLCAHGPEVEWRICTIWEAAYGLIPLNSSAVDLPEIIVATPLQPPILSWNLYIPLLKVLEYLPRGSPSEACLMKIFVATVETILSRTFPPESSRELTRKARSSFTTRSATKNLAMSELRAMVHALFLESCAGVELASRLLFVVLTVCVSHEAQSSGSKRPRSEYASTTENIEANQPVSNNQTANRKSRNVKGQGPVAAFDSYVLAAVCALACEVQLYPMISGGGNFSNSAVAGTITKPVKINGSSKEYGAGIDSAISHTRRILAILEALFSLKPSSVGTPWSYSSSEIVAAAMVAAHISELFRRSKALTHALSGLMRCKWDKEIHKRASSLYNLIDVHSKVVASIVDKAEPLEAYLKNTPVQKDSVTCLNWKQENTCASTTCFDTAVTSASRTEMNPRGNHKYARHSDEGSGRPSEKGIKDFLLDASDLANFLTADRLAGFYCGTQKLLRSVLAEKPELSFSVVSLLWHKLIAAPEIQPTAESTSAQQGWRQVVDALCNVVSATPAKAAAAVVLQAERELQPWIAKDDEEGQKMWKINQRIVKVLVELMRNHDRPESLVILASASDLLLRATDGMLVDGEACTLPQLELLEATARAIQPVLAWGPSGLAVVDGLSNLLKCRLPATIRCLSHPSAHVRALSTSVLRDIMNQSSIPIKVTPKLPTTEKNGMNSPSYRFFNAASIDWKADIQNCLNWEAHSLLSTTMPTQFLDTAARELGCTISLSQ
binding [1]: binds
binding [2]: binds

B2: GI fused to a Venus (YFP) fragment for BiFC (protein, UniProt Q9SQI2 1-1173)
chain: B1 chain
binding [3]: binds
binding [4]: binds

Next, values leading:

binding [1]: no binding
binding [2]: no binding
Molecule: ZEITLUPE (ZTL), full length, yeast two-hybrid fusion (from UniProt Q94BT6 1-609)

binding [5]: binds
binding [6]: binds
B3: HA-GI (protein, UniProt Q9SQI2 1-1173)
chain: B1 chain
